The IC50 comes from the fitted curve, where viability falls to half of the control; fits outside the tested doses are given as limits. The AUC spans the tested range (256-fold, ending at the top dose) of the same fit: 1 means no effect, lower means more sensitive. Any top dose called inferred is not printed in the source and was worked back from the curve model.
Compound: CCOc1cc2ncc(C#N)c(Nc3ccc(F)c(Cl)c3)c2cc1NC(=O)/C=C/CN(C)C [EKB-569]
Assay: Viability of human cancer cell lines after 72 h of drug (GDSC screen)
Details: top dose inferred
Method: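 Human cancer cell lines in 384-well plates, medium with 10% serum, drug for 72 h over a 256-fold dose range (nine 2-fold or five 4-fold steps up to the top dose). Adherent lines were fixed and stained with the nucleic acid dye Syto60, suspension lines read with resazurin; signal relative to control wells, capped at 0 and 100%. One two-parameter sigmoid per drug and line, fitted in a mixed model over all curves with the slope shared within a line.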

Cell Line | AUC | IC50 [µM]
SR (lymphoid neoplasm, suspension, top dose 2.5 µM) | 0.584 | 0.258
ST486 (Burkitt lymphoma, suspension, top dose 2.5 µM) | 0.823 | 1.26
SU8686 (pancreas, adherent, top dose 2.5 µM) | 0.957 | > 2.5
SU-DHL-1 (anaplastic large cell lymphoma, suspension, top dose 2.5 µM) | 0.844 | 1.1
SU-DHL-4 (B-cell lymphoma, suspension, top dose 2.5 µM) | 0.934 | 2.08
SU-DHL-5 (B-cell lymphoma, suspension, top dose 2.5 µM) | 0.852 | 1.24
SU-DHL-6 (B-cell lymphoma, suspension, top dose 2.5 µM) | 0.572 | 0.233
SU-DHL-8 (B-cell lymphoma, suspension, top dose 2.5 µM) | 0.786 | 0.999
SU-DHL-10 (B-cell lymphoma, suspension, top dose 2.5 µM) | 0.584 | 0.249
SU-DHL-16 (B-cell lymphoma, suspension, top dose 2.5 µM) | 0.483 | 0.142
SUIT-2 (pancreas, adherent, top dose 2.5 µM) | 0.558 | 0.227
SUP-B15 (lymphoblastic leukaemia, suspension, top dose 2.5 µM) | 0.834 | 1.54
SUP-HD1 (Hodgkin lymphoma, suspension, top dose 2.5 µM) | 0.847 | 1.71
SUP-M2 (anaplastic large cell lymphoma, suspension, top dose 2.5 µM) | 0.73 | 0.58
SUP-T1 (T-cell lymphoblastic leukaemia, suspension, top dose 20 µM) | 0.677 | 3.7
SW13 (adrenal gland, adherent, top dose 2.5 µM) | 0.961 | > 2.5
SW48 (large intestine, adherent, top dose 20 µM) | 0.881 | > 20
SW156 (kidney, adherent, top dose 2.5 µM) | 0.898 | > 2.5
SW620 (large intestine, adherent, top dose 20 µM) | 0.283 | 0.333
SW626 (ovary, adherent, top dose 2.5 µM) | 0.874 | > 2.5

Cell Line | AUC | IC50 [µM]
SW684 (fibrosarcoma, adherent, top dose 2.5 µM) | 0.98 | > 2.5
SW756 (cervix, adherent, top dose 2.5 µM) | 0.963 | > 2.5
SW780 (bladder, adherent, top dose 2.5 µM) | 0.985 | > 2.5
SW837 (large intestine, adherent, top dose 2.5 µM) | 0.87 | > 2.5
SW872 (soft tissue, adherent, top dose 2.5 µM) | 0.978 | > 2.5
SW900 (lung squamous cell carcinoma, adherent, top dose 2.5 µM) | 0.949 | > 2.5
SW948 (large intestine, adherent, top dose 20 µM) | 0.764 | 10.7
SW954 (urogenital system, adherent, top dose 2.5 µM) | 0.654 | 0.421
SW962 (urogenital system, adherent, top dose 2.5 µM) | 0.957 | > 2.5
SW982 (soft tissue, adherent, top dose 2.5 µM) | 0.906 | > 2.5
SW1088 (glioma, adherent, top dose 2.5 µM) | 0.952 | > 2.5
SW1116 (large intestine, adherent, top dose 2.5 µM) | 0.986 | > 2.5
SW1271 (small cell lung carcinoma, adherent, top dose 2.5 µM) | 0.893 | > 2.5
SW1417 (large intestine, adherent, top dose 2.5 µM) | 0.967 | > 2.5
SW1463 (large intestine, adherent, top dose 2.5 µM) | 0.565 | 0.266
SW1573 (lung adenocarcinoma, adherent, top dose 2.5 µM) | 0.95 | > 2.5
SW1710 (bladder, adherent, top dose 2.5 µM) | 0.879 | > 2.5
SW1783 (glioma, adherent, top dose 2.5 µM) | 0.97 | > 2.5
SW1990 (pancreas, adherent, top dose 2.5 µM) | 0.947 | > 2.5
Saos-2 (osteosarcoma, adherent, top dose 2.5 µM) | 0.973 | > 2.5

Cell Line | AUC | IC50 [µM]
SiHa (cervix, adherent, top dose 2.5 µM) | 0.984 | > 2.5
T47D (breast, adherent, top dose 2.5 µM) | 0.704 | 0.805
T84 (large intestine, adherent, top dose 2.5 µM) | 0.905 | > 2.5
T98G (glioma, adherent, top dose 2.5 µM) | 0.969 | > 2.5
T-24 (bladder, adherent, top dose 2.5 µM) | 0.91 | > 2.5
T-T (oesophagus, adherent, top dose 2.5 µM) | 0.919 | > 2.5
TALL-1 (T-cell lymphoblastic leukaemia, suspension, top dose 2.5 µM) | 0.979 | > 2.5
TC-71 (Ewing sarcoma, adherent, top dose 2.5 µM) | 0.958 | > 2.5
TCCSUP (bladder, adherent, top dose 2.5 µM) | 0.976 | > 2.5
TE-1 (oesophagus, adherent, top dose 2.5 µM) | 0.892 | > 2.5
TE-4 (oesophagus, adherent, top dose 2.5 µM) | 0.614 | 0.321
TE-5 (oesophagus, adherent, top dose 2.5 µM) | 0.913 | > 2.5
TE-6 (oesophagus, adherent, top dose 2.5 µM) | 0.881 | > 2.5
TE-8 (oesophagus, adherent, top dose 2.5 µM) | 0.915 | > 2.5
TE-9 (oesophagus, adherent, top dose 2.5 µM) | 0.978 | > 2.5
TE-10 (oesophagus, adherent, top dose 2.5 µM) | 0.915 | > 2.5
TE-11 (oesophagus, adherent, top dose 2.5 µM) | 0.958 | > 2.5
TE-12 (oesophagus, suspension, top dose 2.5 µM) | 0.622 | 0.366
TE-15 (oesophagus, suspension, top dose 2.5 µM) | 0.381 | 0.0703
TE-441-T (rhabdomyosarcoma, adherent, top dose 2.5 µM) | 0.97 | > 2.5

Source: the supplement of paper PMC4967469
